In all, about 33,000 sequences were measured (“E-score (-0.5 to 0.5)”: median about -0.043, highest 2% from about 0.37 on). Some of the results follow.
The sequences below were run against T1, Upc2 (UniProt Q12151) (assay: PBM E-score (8-mer binding enrichment) (E-score (-0.5 to 0.5)); higher = stronger / more preferred TF binding; most listed sequences are background and not binding sites). Conditions: protein concentration: 200 nM; construct: GST-full length.
T1 sequence: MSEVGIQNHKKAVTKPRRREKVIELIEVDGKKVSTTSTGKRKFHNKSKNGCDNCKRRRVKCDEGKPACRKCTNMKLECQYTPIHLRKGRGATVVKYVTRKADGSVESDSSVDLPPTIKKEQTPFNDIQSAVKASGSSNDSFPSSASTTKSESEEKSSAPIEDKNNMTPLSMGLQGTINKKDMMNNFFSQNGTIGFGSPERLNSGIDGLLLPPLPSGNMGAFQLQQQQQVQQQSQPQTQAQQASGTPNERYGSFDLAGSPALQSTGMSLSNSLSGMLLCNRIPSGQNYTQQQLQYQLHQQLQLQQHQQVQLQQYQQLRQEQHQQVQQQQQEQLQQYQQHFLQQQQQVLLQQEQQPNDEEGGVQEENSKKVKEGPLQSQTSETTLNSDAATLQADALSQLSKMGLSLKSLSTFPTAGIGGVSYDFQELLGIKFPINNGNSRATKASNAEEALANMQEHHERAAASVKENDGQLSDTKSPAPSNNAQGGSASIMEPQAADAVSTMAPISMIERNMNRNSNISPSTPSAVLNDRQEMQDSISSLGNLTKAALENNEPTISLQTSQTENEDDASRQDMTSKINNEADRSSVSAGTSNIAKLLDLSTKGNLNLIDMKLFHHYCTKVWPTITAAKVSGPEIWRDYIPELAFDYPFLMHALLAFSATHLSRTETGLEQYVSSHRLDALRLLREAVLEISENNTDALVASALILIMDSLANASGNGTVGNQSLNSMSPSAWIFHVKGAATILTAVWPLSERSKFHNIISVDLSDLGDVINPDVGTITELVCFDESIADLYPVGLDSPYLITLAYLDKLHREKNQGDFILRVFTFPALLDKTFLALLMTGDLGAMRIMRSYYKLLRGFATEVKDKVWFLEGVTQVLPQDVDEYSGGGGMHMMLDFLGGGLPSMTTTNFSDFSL
Procedure: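 Universal 'all 10-mer' protein binding microarrays (Agilent AMADID 015681) probed with GST-tagged S. cerevisiae TFs (full-length or DBD) made by in vitro transcription/translation (PURExpress), about 100-200 nM. Bound TF was detected with fluorescent anti-GST. Each ungapped 8-mer (which stands for itself and its reverse complement) is scored by the PBM enrichment score (E-score), a modified Wilcoxon-Mann-Whitney statistic from -0.5 to +0.5, computed with the Universal PBM Analysis Suite. Scale: above 0.35 generally sequence-specific binding.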

Point of comparison: ATTGGGCG, “PBM E-score” value 0.013. Against it:
- TAGCCAGA — lower, -0.0491
- GTCCACGA — lower, -0.19
- GGAGCTAC — lower, -0.102
- ACGCTCGC — higher, 0.239
- AGAGTCTG — lower, -0.115
- AGGAACGG — higher, 0.322
- CTTAAAGA — higher, 0.0545
- CATAACAG — lower, -0.138
- GCCCACCA — lower, -0.15
- CCCAAGCG — lower, -0.031
- AACTTGTA — higher, 0.0148
- ATTAACAC — lower, 0.00944
- CTTTGGTA — lower, -0.298
- ACCATAAA — higher, 0.0955
- CCCAATAC — lower, -0.0628
- ATTTACCC — lower, -0.0274
- GGAGTGTA — higher, 0.0865
- GAGTGTCA — lower, -0.164
- AGAGTGCA — lower, -0.0398
- TAGACGAA — higher, 0.197
- AAGAACCC — higher, 0.0495
- CGAGCGTA — higher, 0.29
- CATAGCTC — lower, -0.15
- ACAGTGGA — lower, -0.143
- CAGGGTCC — lower, -0.157
- CAGATTAC — lower, -0.159
- ACGATGTA — higher, 0.294
- CGATGATA — higher, 0.147
- GAATTTGA — lower, -0.0533
- TAAGACTA — lower, -0.0702
- GAGAATCC — lower, -0.0348
- CTTAATAC — higher, 0.0648
- ACCTCTCC — lower, -0.078
- AAAGATCG — higher, 0.126
- CGTCTCAG — lower, -0.0894
- AACTCGAG — lower, -0.0678
- GAAGGGAA — lower, -0.278
- GTGATAAA — higher, 0.0437
- GCGTCCAA — lower, -0.147
- TGGCGAAA — higher, 0.0587
- TAGCACAA — lower, -0.135
- CTTCAATA — lower, -0.0591
- CAGGGAAG — lower, -0.276
- CGGAGAAC — lower, -0.0246
- TACGCTCA — higher, 0.196
- AACGCATA — higher, 0.198
- CTGTGTTC — higher, 0.111
- CAATACCC — lower, -0.11
- TCCGAAGA — higher, 0.0352
- CGCAATAG — higher, 0.103
- CGATGGCA — lower, -0.0664
- ACCGACGG — higher, 0.108
- AACAGTGA — lower, -0.0437
- GTACAGTA — higher, 0.212
- AGTCACAG — higher, 0.0677
- CCCCCGCA — lower, -0.158
- CAGAAAGG — lower, -0.157
- TTACGCAA — higher, 0.176
- GTTGTTCA — higher, 0.0925
- TAGTACTA — higher, 0.0412
- ACCGCCGG — lower, -0.2
- GAATTAAA — higher, 0.0808
- CTACGTTA — higher, 0.118
- ATTAGGTC — higher, 0.094
- AGCACTTA — higher, 0.0453
- CTAGATCC — lower, -0.119
- CCTAAACC — higher, 0.0842
- GCCTGTGA — lower, -0.329
- GTCGTCAC — higher, 0.0697
- ACGGTGAA — higher, 0.238
- ATTATTAG — higher, 0.206
- GGTCTCAA — lower, -0.265
- AGCATGCT — lower, -0.0433
- CGACACAG — higher, 0.122
- CCCAACAA — lower, -0.0187
- AACTACCA — lower, -0.103
- GGTCGTCA — lower, -0.0836
- CACCACGG — lower, -0.368
- GCTCTGCA — lower, -0.121
- AAGCTTAA — higher, 0.0427
- CTAAACCC — lower, -0.216
- ATTTTGGG — lower, -0.135
- CAAACTTA — lower, -0.0208
- CACATACA — lower, -0.107
- CACCCAGG — lower, -0.0598
- CCACGGAG — lower, -0.225
- AAGCTAAG — lower, -0.199
- TCCAAGAA — lower, -0.193
- TTCTCAAA — lower, -0.0571
- CCAGTTTC — lower, -0.0827
- AATCACGC — lower, -0.127
- CTATTTAC — higher, 0.104
- ATATATTG — lower, -0.0515
- GAGCTGAA — higher, 0.0495
- TATTGCGA — higher, 0.0831
- CTGGTATA — higher, 0.0396
- TCCCGCCA — lower, -0.215
- GGCTTATA — higher, 0.0715
- ACCGAGTA — higher, 0.25
- ATAGAGGG — lower, -0.0603
- ACTTCTCC — lower, -0.241
- ATACCTAT — lower, -0.0502
- CGTCTCAC — higher, 0.0219
- AATGCAAG — lower, -0.199
- CAATCCGC — lower, -0.0821
- CGAGAGAC — lower, -0.129
- GCGAGTGA — higher, 0.199
- AACATCAA — higher, 0.086
